Measurements reported in PubChem BioAssay AID761 (NMMLSC, 2007).
Among all 190,000 compounds or so, about 400 (0.21%) were called active. This list was built around the results that the source calls inconclusive (neither active nor inactive); the mix of calls is not that of the screen.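 Rule for the calls: active = percent activity GTP binding at least 20 points away from the 100% baseline, either down as inhibitor or up as activator; inconclusive = compound flagged as likely green fluorescent from well-wide comparison; inactive = the rest.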

The compounds below were run against Cell division control protein 42 homolog (Homo sapiens) (UniProt P60953) (assay: wildtype Cdc42 fluorescent GTP binding changes, either direction – biochemical, multiplex bead flow cytometry, Bodipy-GTP, primary screen (AID 761;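 note: median bead fluorescence of bound Bodipy-FL-GTP at 100 nM; 0% = excess unlabeled GTP control and 100% = no compound control; below 100% means less GTP binding so inhibitor and above means activator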)). Settings: GST-Cdc42 beads, at 10 µM, actives lie on both sides.
Chain of UniProt P60953 (P60953 whole entry, looked up): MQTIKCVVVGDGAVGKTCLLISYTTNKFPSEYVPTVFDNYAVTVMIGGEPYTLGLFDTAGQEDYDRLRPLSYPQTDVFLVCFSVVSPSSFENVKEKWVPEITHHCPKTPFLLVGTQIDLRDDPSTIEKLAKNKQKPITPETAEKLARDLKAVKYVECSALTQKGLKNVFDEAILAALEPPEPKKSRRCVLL

Row | SMILES | percent activity (GTP binding)
1 | COc1ccc(CN=C2NN=C(c3ccccc3)CS2)cc1 | inconclusive: 94%
2 | Cc1ccc(NC(=S)Nc2ccc3nc(-c4ccccn4)c(-c4ccccn4)nc3c2)cc1C | inactive: 101%
3 | Cc1ccc(C)c(N2CCN(C(=O)Cn3c(=O)[nH]c4ccsc4c3=O)CC2)c1 | inconclusive: 104%
4 | O=C1OC(c2ccc(F)cc2)=C/C1=C\c1ccc([N+](=O)[O-])o1 | inactive: 115%
5 | Cc1nc(C)n(CC(=O)N2CCCC(C(=O)c3cccc4ccccc34)C2)n1 (configuration not stated) | inactive: 97%
6 | Nc1nnc(SCC(=O)OCC(=O)c2ccccc2Br)s1 | inconclusive: 91%
7 | CCN(CC(=O)Nc1ccccc1OC)C(=O)C1CC2C=CC1C2 (configuration not stated) | inconclusive: 89%
8 | N=C1C(=O)OCC1c1ccccc1NC(=O)CN1CCOCC1 (configuration not stated) | inactive: 103%
9 | COCC(C)n1c(SCc2cc(=O)n3cc(C)ccc3n2)nc2ccccc2c1=O (configuration not stated) | inconclusive: 94%
10 | CCn1cc(C=C2C(=O)c3ccccc3C2=O)c2ccccc21 | active: 78%
11 | O=C(O)/C=C/c1cn(Cc2ccccc2)nc1-c1ccccc1 | inconclusive: 127%
12 | O=C(OCC1OC(n2cnc3c(N(C(=O)c4ccccc4)C(=O)c4ccccc4)ncnc32)C(O)C1F)c1ccccc1 (configuration not stated) | inconclusive: 108%
13 | CC(C)c1nc2n[nH]c(N)c2c2c1CCC2 | inconclusive: 105%
14 | NC(=O)C1CCN(CC(=O)NCc2ccccc2)CC1 | inconclusive: 102%
15 | O=C(CNS(=O)(=O)c1ccc(Br)cc1)OCc1cc(=O)n2cc(Br)ccc2n1 | inconclusive: 96%
16 | CCOC(=O)n1n[n+]([O-])c2ccccc21 | inconclusive: 104%
17 | O=C(Nc1nnc(-c2ccc3c(c2)OCCO3)o1)c1ccc(Cc2ccccc2)cc1 | inactive: 80%
18 | CCNC(=S)N/N=C(\C)c1ccc2ccccc2c1OC(F)F | inconclusive: 93%
19 | O=C1C2CC=CCC2C(=O)N1c1ncn[nH]1 (configuration not stated) | inconclusive: 483%
20 | COc1ccc(N2C(=S)NC3N2C(=S)NC3(C)c2ccccc2)cc1 (configuration not stated) | inactive: 95%
21 | O=C1c2ccccc2-c2onc3ccc(Oc4ccccc4)c1c23 | active: 78%
22 | CCCCN1CN(S(=O)(=O)c2cccs2)c2nc3ccccc3nc21 | inconclusive: 104%
23 | CC(=O)NC1C(OCc2ccccc2)OC(COC(C)=O)C(OC(C)=O)C1OC(C)=O (configuration not stated) | inactive: 104%
24 | C#CCNC(=O)C1=C[C@H](c2ccc(C(F)(F)F)cc2)[C@@H](CCCO)[C@H](OCC)O1 | inactive: 96%

Row | SMILES | percent activity (GTP binding)
25 | COc1ccc(/C=N/NC(=O)C(=O)NCc2cccnc2)cc1 | inactive: 103%
26 | COc1ccc(CNc2oc(COc3ccc(Cl)cc3)nc2C#N)cc1 | inconclusive: 105%
27 | Cc1ccc(NCC(=O)c2ccccc2)cc1Cl | inactive: 93%
28 | CC1=NN(c2ccc(S(=O)(=O)O)cc2C)C(=O)C1 | inconclusive: 95%
29 | c1cc2c(cc1-c1csc(NNC3=NCCCCC3)n1)OCCO2 | inactive: 100%
30 | CCOC(=O)c1cc2c(N)c(C(=O)c3ccc(Br)cc3)sc2[nH]c1=O | active: 71%
31 | c1ccc(COc2ccc(OCCCCN3CCCCC3)cc2)cc1 | inconclusive: 108%
32 | Cc1ccc(NC(=O)CSc2ncn[nH]2)cc1S(=O)(=O)N1CCOCC1 | inconclusive: 92%
33 | COc1ccccc1-c1nc(C#N)c(N2CCN(C(c3ccccc3)c3ccccc3)CC2)o1 | inconclusive: 97%
34 | Cc1cccc(/N=C2/NC(=O)C(Cc3ccccc3)S2)n1 (configuration not stated) | inconclusive: 98%
35 | C=CCNC(=O)c1c(Cl)cnn1-c1ccc(C)cc1 | inactive: 96%
36 | CCC(OC(=O)c1cc2sccc2n1C)C(=O)NCc1ccco1 (configuration not stated) | active: 40%
37 | C#CCSc1nsc(SCC#C)c1C#N | inconclusive: 97%
38 | Fc1ccccc1N1CCN(c2ncnc3[nH]ncc23)CC1 | inconclusive: 92%
39 | CC(C)NC(=O)Cn1nnc(-c2ccc(Cl)cc2)n1 | inconclusive: 98%
40 | CC(C)Nc1nnc(SC(C)C(=O)Nc2ccc(Cl)cn2)s1 (configuration not stated) | inactive: 102%
41 | N#Cc1ccc(-c2ccc(Cl)cc2)nc1Oc1ccc(F)cc1 | inconclusive: 109%
42 | Cc1cc(NC(=O)CN2C(=O)NC(C)(CCc3ccccc3)C2=O)no1 (configuration not stated) | inactive: 96%
43 | CN1C=CC=C/C1=C1\SC(=S)N(c2ccccc2)C1=O | inconclusive: 108%
44 | CCOc1cc(C2c3c(-c4ccccc4)n[nH]c3C(=O)N2c2ccc(C(=O)O)cc2)ccc1O (configuration not stated) | active: 79%
45 | COCCCNC(=O)C1CCN(c2nc(C)cc(C)n2)CC1 | inconclusive: 109%
46 | CCCn1c(C)cc(C(=O)CSc2nc3nc(C)cc(C)n3n2)c1C | inactive: 100%
47 | Cn1/c(=N\NC(=O)c2ccccc2Cl)sc2ccccc21 | inactive: 94%
